Assay results published in PubChem BioAssay AID1863 (Southern Research Specialized Biocontainment Screening …, 2009).
About 480 (0.16%) of roughly 300,000 compounds were called active.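 The calls were made as follows: active = inhibition over 29.93%, a cutoff 3 SD above the screen mean, later confirmed by dose response; inconclusive = inhibition over 29.93% but no dose response follow-up; inactive = inhibition at most 29.93% or unconfirmed.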 Inconclusive results, whose numbers are uncertain, are shown.

Assay: inhibitors of PhoP regulon expression, primary screen, Salmonella Typhimurium, GFP reporter (AID 1863);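 also: 0% = low Mg2+ inducing control and 100% = high Mg2+ repressing control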
Details: S. Typhimurium PhoP-regulated promoter GFP reporter, 4 h; at 50 µM; active compounds read high

SMILES | inhibition
Brc1ccc2c(c1)C(OC1CN3CCC1CC3)c1ccccc1CS2 (centres undefined) | inconclusive: 40.7%
CN(C)[C@@H]1C(=O)C(C(N)=O)=C(O)[C@@]2(O)C(=O)C3=C(O)c4c(O)ccc(Cl)c4[C@@](C)(O)C3C[C@@H]12 (some centres undefined) | inconclusive: 120%
CCCCCCC[n+]1ccc(-c2cc[n+](CCCCCCC)cc2)cc1 | inconclusive: 57.3%
CCCCCCCCCCCCn1ccc(=N)cc1 | inconclusive: 153%
